# Values joined by “and” are separate entries in the source; they are usually repeats but may differ in a detail not shown here. Equal values may be shown once. ± gives the uncertainty stated by the source. Whole data set: some 9,900 compounds, median “viability index relative to DMSO control” near 1, cut for the lowest 2% near 0.85. This is one part of the list.
# System: Plasmodium falciparum NF54 stage V gametocytes
# Experiment: viability index relative to DMSO control (fraction); higher = less gametocyte killing
# Settings: 2.5 µM, incubation time: 72 h
# Summary of the method: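 Viability index is the count of red-stained particles in a well divided by the plate mean of solvent-only wells. Particles of 20–70 µm2 were counted in one imaged field per well after one to two hours with 3 µl of 2.5 µM MitoTracker Red CMXRos and 0.13% saponin. Before staining, P. falciparum NF54 stage V gametocytes in serum-free medium (0.75% gametocytemia, 1.25% hematocrit, 10 µl, 1,536-well plates) were kept with compound at 2.5 µM for 72 hr at 37°C under low oxygen.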
# [1] = library set: Broad Institute Blood Stage
# [2] = library set: Broad Institute DOS
SMILES,viability index [1],viability index [2]
COc1ccc2c3c([C@H](CO)N(Cc4ccc5OCOc5c4)C[C@]33CN(C3)C(=O)c3ccc4OCOc4c3)n(C)c2c1,0.435 ± 0.088,–
COCC(=O)N(C[C@H]1[C@H](c2ccccc2)[C@H](CO)N1C(=O)NC(C)C)C(C)C,–,0.929 ± 0.011
O=C(C1CCOCC1)N1CC(=O)N2[C@H](CO)[C@@H](c3ccc(C#CC4CCCCC4)cc3)[C@H]2C1,–,1.1 ± 0.067
COc1ccc2c3c([C@@H](CO)N(C[C@]33CCN(CC3)C(=O)CN(C)C)C(=O)C3CC3)n(C)c2c1,–,0.9448 ± 0.0058
CS(=O)(=O)N1[C@@H]2Cn3c(cccc3=O)[C@H]1[C@@H](C(=O)NCc1ccc(F)cc1)[C@@H]2CO,–,1.03 ± 0.051
COc1cccc(C(=O)Nc2ccc3c(c2)C(=O)N(C)[C@H]2CC[C@H](CC(=O)Nc4ccc5c(c4)CCCC5)O[C@@H]2CO3)c1,–,0.92 ± 0.09
CN1CCN(C(=O)C[C@@H]2CC[C@H]3[C@@H](COC[C@@H](O)CN3Cc3cccc(-c4ccncc4)c3)O2)CC1,–,1.1 ± 0.056
C[C@@H]1CCCCO[C@H](CN(C)C(=O)NC2CCCCC2)[C@H](C)CN([C@H](C)CO)C(=O)c2cc(N(C)C)ccc2O1,–,1.02 ± 0.032
C/C=C/c1cnc2c(c1)C(=O)N([C@H](C)CO)C[C@@H](C)[C@@H](CN(C)CC1CCOCC1)O2,–,1.05 ± 0.016
CO[C@@H](CN(C)C(=O)c1ccccc1F)[C@H](C)CN([C@@H](C)CO)S(=O)(=O)c1ccc(F)cc1,–,1.01 ± 0.023
C[C@H]1CN([C@@H](C)CO)C(=O)Cc2cc(NS(=O)(=O)c3cn(C)cn3)ccc2O[C@H]1CN(C)Cc1ccc2c(c1)OCO2,–,1.06 ± 0.05
O=C(C[C@H]1C=C[C@H](NS(=O)(=O)c2ccc(F)cc2)[C@@H](CO)O1)N1CCc2ccccc2C1,–,0.95 ± 0.057
COc1ccc2c3c([C@H](CO)N(CC4CC4)C[C@]33CCN(CC3)S(=O)(=O)c3cccs3)n(C)c2c1,–,0.965 ± 0.02
C[C@@H]1CN([C@@H](C)CO)C(=O)c2cc(/C=C/c3ccccc3)cnc2O[C@@H]1CN(C)S(=O)(=O)c1ccccc1F,–,1.02 ± 0.059
CS(=O)(=O)N1CC(=O)N2[C@H](CO)[C@@H](c3ccc(C#CCC4CCCC4)cc3)[C@@H]2C1,–,0.933 ± 0.074
O=C1N[C@@H](c2ccccc2)COCc2cnnn2CC[C@H]1Cc1ccc(C(F)(F)F)cc1,–,1.04 ± 0.026
CCC(=O)N1C[C@H](C)[C@@H](OC)CN(C)C(=O)c2ccc(NC(=O)CC(F)(F)F)cc2OC[C@@H]1C,–,1.07 ± 0.068
O=C(C[C@@H]1CC[C@@H]2[C@H](COC[C@H](O)CN2C(=O)Nc2cccc(F)c2)O1)NCCCN1CCOCC1,–,1.07 ± 0.014
NCC[C@@H]1CC[C@@H](NS(=O)(=O)c2ccc(Cl)cc2)[C@@H](CO)O1,–,1.02 and 1.13
CO[C@H]1CN(C)C(=O)c2cc(NC(=O)Cc3ccccc3)ccc2OC[C@@H](C)N(C(=O)c2ccccc2F)C[C@@H]1C,–,1.05 ± 0.11
C[C@@H]1CCCCO[C@H](CN(C)C(=O)c2ccncc2)[C@H](C)CN([C@@H](C)CO)C(=O)c2cc(NC(=O)CCC(F)(F)F)ccc2O1,–,1 ± 0.054
CO[C@@H](CN(C)C(=O)C1CCOCC1)[C@H](C)CN([C@@H](C)CO)S(=O)(=O)c1ccccc1,–,1.06 ± 0.074
CCC(=O)N[C@H]1CC[C@@H](CC(=O)NCc2ccccc2F)O[C@H]1CO,–,1.17 ± 0.02
COCc1cn(CC[C@H]2CC[C@H](NC(=O)Nc3c(C)noc3C)[C@@H](CO)O2)nn1,–,0.927 ± 0.067

SMILES,viability index [1],viability index [2]
O=C(C[C@@H]1CC[C@@H]2[C@H](COC[C@@H](O)CN2CC2CCOCC2)O1)NCc1ccc(Cl)cc1,–,1.08 ± 0.075
Cc1ccccc1-c1ccccc1[C@@H]1[C@@H](C#N)N(C(=O)c2ccc(F)cc2)[C@H]1CO,–,1.15 ± 0.051
CC(=O)N1[C@H](C(=O)NCc2ccccc2Cl)[C@@H](CO)[C@@H]2Cn3c(ccc(-c4cncnc4)c3=O)[C@@H]21,–,1.04 ± 0.058
O=C(C[C@@H]1CC[C@H]2[C@@H](COC[C@@H](O)CN2C(=O)c2ccc(F)cc2)O1)N1CCCCC1,–,1.07 ± 0.046
COCC#Cc1ccc([C@H]2[C@H](CO)N3C(=O)CN(C(=O)Nc4ccccc4F)C[C@@H]23)cc1,–,1.029 ± 0.0064
CO[C@@H]1CN(C)C(=O)c2cc(NS(C)(=O)=O)ccc2OC[C@H](C)N(C(=O)C2CCOCC2)C[C@@H]1C,–,1.03 ± 0.049
CC(C)(C)S(=O)N1Cc2cc(C(=O)O)nc(-c3cccc(-c4cc5ccccc5o4)c3)c2[C@@H]1CCO (stereo not given in full),–,1.03 ± 0.023
C[C@H](CO)N1C[C@H](C)[C@@H](CN(C)Cc2cccc(C(F)(F)F)c2)OCc2ccccc2-c2c(n(C)c3ccccc23)C1=O,–,0.878 ± 0.081
C[C@H]1CN([C@@H](C)CO)C(=O)Cc2cc(NC(=O)Cn3cnnn3)ccc2O[C@@H]1CN(C)S(=O)(=O)c1ccc(Cl)cc1,–,1.09 ± 0.066
COc1ccc(C(=O)N2C[C@H]3[C@@H](c4ccccc42)[C@@H](CO)N3C(=O)NC(C)C)cc1,–,1.05 ± 0.045
C[C@H](CO)N1C[C@H](C)[C@H](CN(C)Cc2ccc3c(c2)OCCN3C)OCc2cnnn2CCCC1=O,–,1.04 ± 0.043
CCC(=O)N1[C@H](CO)[C@@H](c2ccc(/C=C/c3ccccc3)cc2)C12CN(S(C)(=O)=O)C2,–,1.06 ± 0.025
COC(=O)C[C@H]1C[C@@H]2c3cc(NC(=O)C4CCOCC4)ccc3O[C@@H]2[C@H](CO)O1,–,1.128 ± 0.0042
CCCNC[C@H]1[C@@H](c2ccc(C3=CCCCC3)cc2)[C@@H](CO)N1C(=O)C1CCC1,–,0.977 ± 0.036
COc1ccc(S(=O)(=O)Nc2ccc3c(c2)C(=O)N([C@@H](C)CO)C[C@H](C)[C@@H](CN(C)S(=O)(=O)c2ccc(Cl)cc2)OCCCC[C@@H](C)O3)cc1,–,0.927 ± 0.078
C[C@H](CO)N1C[C@H](C)[C@@H](CN(C)C(=O)C2CCCCC2)Oc2ncc(/C=C/c3ccccc3)cc2C1=O,0.735 ± 0.028,–
O=C(NCc1cc(F)cc(F)c1)[C@H]1[C@H](CO)[C@H]2Cn3c(cccc3=O)[C@@H]1N2,–,1.01 ± 0.027
C[C@H](CO)N1C[C@H](C)[C@@H](CN(C)C(=O)Nc2cccc3ccccc23)OCCCC[C@H](C)Oc2ccc(NC(=O)CCC(F)(F)F)cc2C1=O,–,1.02 ± 0.072
COc1ccccc1-c1ccc([C@@H]2[C@@H]3CN(C(=O)c4ccncc4)C[C@H]2N3)cc1,–,0.991 ± 0.048
CC(C)NC(=O)NCC[C@H]1CC[C@@H](NS(=O)(=O)c2ccc(Oc3ccccc3)cc2)[C@H](CO)O1,–,1.1 ± 0.06
COc1ccc(-c2ccc([C@@H]3[C@@H]4CN(C(=O)c5ccc(F)cc5)C[C@H]3N4)cc2)cc1,–,0.987 ± 0.082
COc1ccccc1S(=O)(=O)N[C@H]1C=C[C@H](CC(=O)N2CCOCC2)O[C@@H]1CO,–,1.12 ± 0.23
C[C@H](CO)N1C[C@H](C)[C@@H](CN(C)S(=O)(=O)c2ccc(Cl)cc2)Oc2ccc(NS(=O)(=O)c3cccs3)cc2C1=O,–,1.03 ± 0.035
CCCNC(=O)N1CC(=O)N2[C@H](C1)[C@H](c1ccc(C#CCC3CCCC3)cc1)[C@@H]2CO,–,1.02 ± 0.092

SMILES,viability index [1],viability index [2]
C[C@@H]1CN([C@@H](C)CO)C(=O)c2cc(NC(=O)Nc3cccc4ccccc34)ccc2O[C@H]1CN(C)S(=O)(=O)c1cccs1,–,1.093 ± 0.0039
CN1CCCCN2[C@H](CO)[C@H](c3ccc(-c4ccc(F)cc4)cc3)[C@H]2C1,–,1.05 ± 0.034
CNC[C@@H]1Oc2cc(C#Cc3ccccc3OC)ccc2S(=O)(=O)N([C@H](C)CO)C[C@H]1C,–,0.897 ± 0.03
C[C@@H](NC(=O)C[C@H]1CC[C@H]2[C@H](COc3ccc(NS(=O)(=O)c4ccc(Cl)cc4)cc3C(=O)N2C)O1)c1ccccc1,–,0.984 ± 0.018
CC(=O)N1[C@H](CO)[C@@H](c2ccccc2)[C@@H]1CN(CC(C)C)C(=O)c1ccccn1,–,0.952 ± 0.074
CC(C)NC(=O)Nc1cccc2c1O[C@@H](CN(C)C(=O)Nc1ccccc1)[C@H](C)CN([C@H](C)CO)C2=O,–,1.05 ± 0.17
COc1ccc2c3c([nH]c2c1)[C@H](CO)N(C[C@]31CN(C)C1)C(=O)c1ccncc1,–,1.04 ± 0.046
COCC(=O)N(C)C[C@H]1[C@H](c2ccccc2)[C@@H](CO)N1C(=O)Cc1ccncc1,–,1.02 ± 0.062
O=C(Cc1ccncc1)N1C[C@@H]2N[C@H](C1)[C@H]2c1ccc(/C=C/c2ccccc2)cc1,–,1.07 ± 0.1
OC[C@H]1[C@H](c2ccc(C#CC3(O)CCCC3)cc2)[C@H]2CN(Cc3cncnc3)CCCCN21,–,1.11 ± 0.036
CCCNC(=O)Nc1ccc2c(c1)C(=O)N(C)[C@H]1CC[C@H](CC(=O)Nc3ccc4c(c3)CCCC4)O[C@@H]1CO2,–,1.05 ± 0.033
COc1ccc2c3c([nH]c2c1)[C@H](CO)N(C)C[C@]31CCN(CC1)S(=O)(=O)c1ccc(C)cc1,–,1.04 ± 0.03
CO[C@H]1CN(C)C(=O)c2cccc(C#N)c2OCC[C@H]2CC[C@@H](OC)[C@@H](CN(C)C(=O)[C@@H]1C)O2,–,1.08 ± 0.017
C[C@@H]1CCCn2cc(nn2)COCCNC1=O,–,0.994 ± 0.094
Cc1nn(C)cc1NC(=O)C[C@@H]1CC[C@H]2[C@H](COc3ccc(NC(=O)c4cccc(F)c4)cc3C(=O)N2C)O1,–,1.02 ± 0.02
CCc1cnc(N2[C@H](C#N)[C@@H](c3ccc(-c4cccc(F)c4)cc3)[C@@H]2CO)s1,–,1.12 ± 0.11
CNC[C@H]1Oc2ccc(NS(=O)(=O)c3ccc(OC)cc3)cc2C(=O)N([C@H](C)CO)C[C@H]1C,–,1.01 ± 0.079
Fc1ccc(F)c(CN2[C@@H]3CNC[C@H]2[C@H]3c2ccc(-c3ccncc3)cc2)c1,–,1.13 ± 0.031
O=C(C[C@@H]1C[C@H]2c3cc(NC(=O)C4CCOCC4)ccc3O[C@H]2[C@@H](CO)O1)NCCN1CCCCC1,–,1.09 ± 0.03
CO[C@@H]1CN(C)C(=O)c2ccc(NC(=O)Nc3ccccc3)cc2OC[C@@H](C)N(C(=O)CC2CC2)C[C@@H]1C,–,1.09 ± 0.083
C[C@@H](NC(=O)C[C@@H]1CC[C@H]2[C@H](COc3ccc(NS(=O)(=O)c4ccc(Cl)cc4)cc3C(=O)N2C)O1)c1ccccc1,–,0.991 ± 0.048
CO[C@@H]1CN(C)C(=O)c2cc(NC(=O)c3ccc4c(c3)OCO4)ccc2OC[C@@H](C)N(CCC(F)(F)F)C[C@H]1C,–,1.13 ± 0.11

# Source: the supplement of paper PMC4723716
